The values that follow come from PubChem BioAssay (NCI).

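96-well plates; 48 h exposure; 5 concentrations. Endpoints by linear interpolation between flanking doses. Not reached: highest tested concentration assigned. At the GI50, growth is halved. TGI is the concentration that stops growth completely.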 Some results are limits rather than exact numbers.

In the test the test system is NCI-H322M lung. As to the kind of experiment: growth of human tumour cells (NCI), 48 h.

For `COc1ccc2nc3ccc(OC)cc3c(SCCCl)c2c1`, the TGI is more than 100 µM.

For `CC(C)(O)c1cc2c(cc1C(C)(C)O)-c1ccccc1-2`, the TGI was more than 100 µM. `Cc1cc(S(N)(=O)=O)c(S/C(=N\NS(=O)(=O)c2ccccc2)c2ccc(Cl)cc2)cc1Cl`: the GI50 was 64.3 µM and the TGI is more than 100 µM. `O=C(/C=C/c1ccccc1O)c1ccccc1Cl` returned a TGI of more than 100 µM.

For the molecule `Cc1ccc(OC(=O)N2C/C(=C\c3ccccc3)C(=O)/C(=C/c3ccccc3)C2)cc1`, the TGI is more than 100 µM. `CCCc1cc(OC(=O)c2c(O)cc(OC)cc2CCC)cc(O)c1C(=O)O`: the TGI is 55.7 µM. The molecule `C[C@@H]1CC[C@@H]2[C@@H](C1)O[C@@H]([C@@H](C)OCc1ccccc1)SC2(C)C` had a TGI of 74 µM.

In turn, `COC(=O)[C@@](NC(=O)OCc1ccccc1)([C@H](C)O)C(F)(F)F` yielded a TGI of more than 100 µM. `C1CSCC2(COC2)CSCCSCC2(COC2)CS1` displayed a TGI of more than 100 µM. As to `C=C1C2=C(CCCC2)C(=O)OC12CCCCC2`, the TGI was more than 100 µM. Consider `C[C@@H]1CC[C@H]2[C@H](C)C(OC3O[C@@H]4O[C@@]5(C)CC[C@H]6[C@H](C)CC[C@@H]([C@@H]3C)[C@@]46O5)O[C@@H]3O[C@@]4(C)CC[C@@H]1[C@]32O4` (some centres undefined), for which the TGI was more than 100 µM.

In the case of `Cc1ccc(-c2cc(-c3ccc(Cl)cc3)nc(/N=C3\C(=O)N(CN(C)C)c4ccccc43)n2)cc1`, the TGI was more than 100 µM. In turn, `C=CCN1CCC(c2cc(C(=O)OCC)[nH]c2-c2cc(C)no2)C1=O` (centres undefined) showed a TGI of more than 100 µM. `CCCCCCCCCCCCCCCc1nc(=S)[nH][nH]1` showed a TGI of more than 100 µM. Take `O=C1CCC(=O)N1Sc1ccccc1`: the TGI is more than 100 µM. Molecule `OCCN(CO)CO` returned a TGI of more than 100 µM. The molecule `CC(=O)[C@H]1[C@H](O)C[C@@]2(C)[C@@H]3CCc4cc(O)c(OC5OC(CO)C(O)C(O)C5O)cc4C3(C)C(=O)C[C@]12C` (some centres undefined) gave a TGI of more than 100 µM. With `CCOC(=O)/C(=C\c1ccc2ccccc2c1)P(=O)(OCC)OCC`, the GI50 was 4.28 µM and the TGI was found to be 17.1 µM.

As to `OCC(O)C(O)C(O)c1nn(-c2ccc(F)cc2)c2nc3cc(Cl)c(Cl)cc3nc12` (centres undefined), the TGI was more than 100 µM. `Cc1ccc(S(=O)C(C)C(Cl)c2ccccc2)cc1` (centres undefined) displayed a TGI of more than 100 µM. The same measure, in the same setting: to `CN1CCC(C(O)(c2ccccc2)c2ccc(Br)cc2)CC1` (centres undefined) belongs 93 µM. `CS(=O)(=O)Nc1cc(-c2ccc3ncnc(Nc4cccc(Cl)c4)c3c2)cnc1Cl`: the GI50 is 0.278 µM and the TGI worked out at 2.7 µM. Take `CC(=O)Oc1cc2cnc3c4cc(OC(C)=O)c(OC(C)=O)cc4ccc3c2cc1OC(C)=O`: the GI50 was 1.79 µM and the TGI came to 8.31 µM.

Molecule `COc1cc([C@@H]2c3cc4c(cc3[C@@H](NCc3cccc(C#N)c3)C3COC(=O)[C@@H]32)OCO4)cc(OC)c1O` (some centres undefined) returned a TGI of more than 100 µM. Molecule `CC(C)(C)OC(=O)CCCCCNC(=O)CCCCCNC(=O)CCC(CN(CC(=O)OCc1ccccc1)CC(=O)OCc1ccccc1)N(CC(=O)OCc1ccccc1)CC(=O)OCc1ccccc1` (centres undefined) came in with a TGI of more than 100 µM. The molecule `Cc1cc(Cl)ccc1NC(=O)C1C(=O)N(c2ccc(Cl)cc2C)C(=O)/C1=N\NC(N)=S` (centres undefined) showed a TGI of more than 100 µM. Take `COc1ccc(-c2nc(Nc3ccccc3)sc2Cc2sc(Nc3ccccc3)nc2-c2ccc(OC)cc2)cc1`: the TGI is more than 100 µM. The same measure, in the same setting: as for `CCCCCCCCCCCCOCC1(COCCCCCCCCCCCC)COC(c2ccc(N)cc2)OC1`, the figure is more than 100 µM; as for `COc1ccccc1NC(=O)C1=C(C)NC(C)=C(C(=O)Nc2ccccc2OC)C1c1ccco1`, more than 100 µM. Same read-out and setting: as for `CC(=O)N1C(Nc2nccs2)CCN1c1ccccc1` (centres undefined), the figure is more than 10 µM; as for `COc1ccc(C)cc1NC(=S)C#N`, more than 100 µM; as for `O=C(O)c1cc2ccccc2c(N=Nc2ccc(S(=O)(=O)Nc3ncccn3)cc2)c1O`, more than 100 µM. Regarding `CCOC(=O)c1c(NC(=O)c2ccc(Cl)cc2)sc2c(CN(C)C)c(O)ccc12`, the GI50 is 9.74 µM and the TGI is 58.4 µM. As to `O=C1C(=O)C2(CC1S(=O)(=O)c1ccccc1)c1ccccc1-c1ccccc12` (centres undefined), the TGI is 53.3 µM.
